# Where two headings read alike, the source gives them in different places. These are yes or no findings as the source states them, for the method shown. In cells and extracts the contact can be indirect. Some entries that bind do so weakly or less than the wild type. Sequences can lack the tags named with a protein.
# Protein sequences, listed by entry. Tags and fused reporters are not part of them. Residues count along the entry.
# UniProt P20029, residues 20-655: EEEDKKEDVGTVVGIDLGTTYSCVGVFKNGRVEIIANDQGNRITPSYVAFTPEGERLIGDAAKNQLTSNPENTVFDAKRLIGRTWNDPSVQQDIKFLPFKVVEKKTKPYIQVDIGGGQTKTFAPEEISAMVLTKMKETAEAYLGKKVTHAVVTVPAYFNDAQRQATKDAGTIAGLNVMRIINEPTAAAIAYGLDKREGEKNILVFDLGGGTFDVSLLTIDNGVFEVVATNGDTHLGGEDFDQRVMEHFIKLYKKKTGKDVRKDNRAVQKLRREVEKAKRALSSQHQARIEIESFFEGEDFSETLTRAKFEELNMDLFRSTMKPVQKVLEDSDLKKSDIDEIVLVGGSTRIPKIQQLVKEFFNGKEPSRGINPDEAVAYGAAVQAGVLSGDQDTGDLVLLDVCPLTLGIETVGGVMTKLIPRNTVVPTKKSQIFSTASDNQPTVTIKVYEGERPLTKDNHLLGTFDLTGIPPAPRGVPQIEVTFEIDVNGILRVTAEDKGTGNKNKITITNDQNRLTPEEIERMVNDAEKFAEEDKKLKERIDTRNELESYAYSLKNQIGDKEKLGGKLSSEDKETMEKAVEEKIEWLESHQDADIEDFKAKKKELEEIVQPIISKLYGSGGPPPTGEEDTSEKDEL
# UniProt P11021, residues 19-654: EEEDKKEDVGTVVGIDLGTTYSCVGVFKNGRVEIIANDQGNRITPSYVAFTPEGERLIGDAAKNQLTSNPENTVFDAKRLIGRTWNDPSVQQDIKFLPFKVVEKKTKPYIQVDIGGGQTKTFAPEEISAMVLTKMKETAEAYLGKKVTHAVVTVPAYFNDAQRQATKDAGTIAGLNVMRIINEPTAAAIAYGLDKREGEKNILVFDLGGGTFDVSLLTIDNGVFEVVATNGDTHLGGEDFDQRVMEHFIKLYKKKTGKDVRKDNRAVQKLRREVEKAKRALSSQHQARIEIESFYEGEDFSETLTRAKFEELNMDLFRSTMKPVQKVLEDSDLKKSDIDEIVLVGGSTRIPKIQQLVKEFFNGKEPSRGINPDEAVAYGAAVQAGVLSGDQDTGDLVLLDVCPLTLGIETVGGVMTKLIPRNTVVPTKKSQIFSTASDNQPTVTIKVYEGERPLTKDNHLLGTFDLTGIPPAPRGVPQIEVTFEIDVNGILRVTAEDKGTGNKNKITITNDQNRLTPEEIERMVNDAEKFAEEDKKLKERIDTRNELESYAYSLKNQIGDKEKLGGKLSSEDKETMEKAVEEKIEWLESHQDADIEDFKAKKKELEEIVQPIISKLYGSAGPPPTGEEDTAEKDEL
# T1: mouse GALNTL5 protein tagged with green fluorescent protein (GFP) (mouse) (UniProt Q9D4M9)
# T1 sequence: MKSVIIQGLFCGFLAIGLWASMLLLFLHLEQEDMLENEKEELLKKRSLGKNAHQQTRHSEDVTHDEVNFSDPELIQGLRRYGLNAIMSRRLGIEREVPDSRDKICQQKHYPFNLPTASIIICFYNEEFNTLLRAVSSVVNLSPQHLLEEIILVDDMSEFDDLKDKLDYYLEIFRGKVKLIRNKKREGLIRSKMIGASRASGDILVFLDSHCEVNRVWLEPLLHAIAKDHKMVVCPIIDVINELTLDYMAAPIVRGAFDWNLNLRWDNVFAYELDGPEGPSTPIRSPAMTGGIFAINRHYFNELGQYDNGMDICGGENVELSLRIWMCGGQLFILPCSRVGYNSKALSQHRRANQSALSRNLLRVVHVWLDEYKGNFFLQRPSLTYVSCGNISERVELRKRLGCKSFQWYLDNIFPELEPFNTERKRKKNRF
# T2: Flag-tagged mouse GALNTL5, full length (mouse) (UniProt Q9D4M9)
# T2 sequence (chain, N-glycans at the N-glycosylation sites N68, N140, N353 and N390): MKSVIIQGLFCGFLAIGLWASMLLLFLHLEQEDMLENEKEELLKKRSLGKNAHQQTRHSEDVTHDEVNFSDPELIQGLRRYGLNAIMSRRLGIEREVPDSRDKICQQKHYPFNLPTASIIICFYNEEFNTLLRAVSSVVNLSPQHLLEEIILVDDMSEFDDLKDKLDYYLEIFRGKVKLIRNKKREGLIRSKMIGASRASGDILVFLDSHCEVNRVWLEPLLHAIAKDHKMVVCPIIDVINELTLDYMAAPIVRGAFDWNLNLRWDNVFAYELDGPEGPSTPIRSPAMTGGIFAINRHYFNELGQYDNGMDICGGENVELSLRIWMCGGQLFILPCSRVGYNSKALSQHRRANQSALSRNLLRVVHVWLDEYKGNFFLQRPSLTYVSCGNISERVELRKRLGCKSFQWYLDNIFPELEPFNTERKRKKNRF
# T3: Flag-tagged mouse GALNTL5 quadruple mutant (N68K, N140K, N353K, N390K) (mouse) (UniProt Q9D4M9)
# T3 sequence: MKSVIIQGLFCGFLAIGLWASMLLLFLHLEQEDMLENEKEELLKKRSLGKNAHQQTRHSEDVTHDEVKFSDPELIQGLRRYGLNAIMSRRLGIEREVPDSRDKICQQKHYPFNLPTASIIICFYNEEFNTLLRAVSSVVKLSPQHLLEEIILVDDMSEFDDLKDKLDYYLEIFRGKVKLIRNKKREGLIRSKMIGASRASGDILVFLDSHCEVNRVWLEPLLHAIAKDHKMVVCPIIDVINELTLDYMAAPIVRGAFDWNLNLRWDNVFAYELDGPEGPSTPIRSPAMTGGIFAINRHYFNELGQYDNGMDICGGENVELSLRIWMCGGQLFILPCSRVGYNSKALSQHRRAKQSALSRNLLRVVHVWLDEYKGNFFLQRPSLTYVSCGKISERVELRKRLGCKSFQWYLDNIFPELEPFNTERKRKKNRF
# T4: Flag-tagged human GALNTL5 (human) (UniProt Q7Z4T8)
# T4 sequence (chain, N-glycan structures (sites not printed)): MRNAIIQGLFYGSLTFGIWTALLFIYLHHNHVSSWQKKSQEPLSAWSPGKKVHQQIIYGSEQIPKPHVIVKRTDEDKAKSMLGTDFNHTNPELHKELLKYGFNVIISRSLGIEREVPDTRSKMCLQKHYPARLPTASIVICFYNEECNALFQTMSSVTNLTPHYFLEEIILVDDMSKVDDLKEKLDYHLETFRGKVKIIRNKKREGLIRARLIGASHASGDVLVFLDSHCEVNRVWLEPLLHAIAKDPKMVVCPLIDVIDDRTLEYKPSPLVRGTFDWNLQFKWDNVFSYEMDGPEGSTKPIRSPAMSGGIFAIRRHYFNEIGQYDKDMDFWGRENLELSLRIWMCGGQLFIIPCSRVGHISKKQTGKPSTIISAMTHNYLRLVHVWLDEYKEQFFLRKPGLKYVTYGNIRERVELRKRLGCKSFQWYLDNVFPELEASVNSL
# What was measured:
# [1] = target: T1, mouse GALNTL5 protein tagged with green fluorescent protein (GFP) (mouse); experiment: co-IP; lysates of GALNTL5-GFP/GC-2spd(ts) cells with cumate; IP with anti-GFP antibody, western blot with anti-BiP and anti-calnexin antibodies
# [2] = target: T2, Flag-tagged mouse GALNTL5, full length (mouse); experiment: co-IP; GC-2spd(ts) cells transiently transfected with Flag-tagged mouse GALNTL5 cDNAs, cultured overnight; IP of lysates with the DDDDK-tagged Protein Magnetic purification Kit (anti-Flag), western blot for the chaperones
# [3] = target: T3, Flag-tagged mouse GALNTL5 quadruple mutant (N68K, N140K, N353K, N390K) (mouse); experiment: as above
# [4] = target: T4, Flag-tagged human GALNTL5 (human); experiment: co-IP; HEK293T cells transfected with Flag-tagged human GALNTL5 cDNAs, cultured overnight; IP of lysates with the DDDDK-tagged Protein Magnetic purification Kit (anti-Flag), western blot
# [5] = target: T2, Flag-tagged mouse GALNTL5, full length (mouse); experiment: co-IP; GC-2spd(ts) cells transiently transfected with Flag-tagged mouse GALNTL5 cDNAs, cultured overnight; IP of lysates with the DDDDK-tagged Protein Magnetic purification Kit (anti-Flag), western blot for the chaperones; remark: listed apart in the source
# [6] = target: T3, Flag-tagged mouse GALNTL5 quadruple mutant (N68K, N140K, N353K, N390K) (mouse); experiment: as above; remark: listed apart in the source
Molecule,binding [1],binding [4],also measured
"BiP (GRP78) (mouse, endogenous) (from UniProt P20029 20-655)",binds,,binding [2]: binds; binding [3]: binds
"calnexin (human, endogenous) (protein, UniProt P27824 21-592) HDGHDDDVIDIEDDLDDVIEEVEDSKPDTTAPPSSPKVTYKAPVPTGEVYFADSFDRGTLSGWILSKAKKDDTDDEIAKYDGKWEVEEMKESKLPGDKGLVLMSRAKHHAISAKLNKPFLFDTKPLIVQYEVNFQNGIECGGAYVKLLSKTPELNLDQFHDKTPYTIMFGPDKCGEDYKLHFIFRHKNPKTGIYEEKHAKRPDADLKTYFTDKKTHLYTLILNPDNSFEILVDQSVVNSGNLLNDMTPPVNPSREIEDPEDRKPEDWDERPKIPDPEAVKPDDWDEDAPAKIPDEEATKPEGWLDDEPEYVPDPDAEKPEDWDEDMDGEWEAPQIANPRCESAPGCGVWQRPVIDNPNYKGKWKPPMIDNPSYQGIWKPRKIPNPDFFEDLEPFRMTPFSAIGLELWSMTSDIFFDNFIICADRRIVDDWANDGWGLKKAADGAAEPGVVGQMIEAAEERPWLWVVYILTVALPVFLVILFCCSGKKQTSGMEYKKTDAPQPDVKEEEEEKEEEKDKGDEEEEGEEKLEEKQKSDAEEDGGTVSQEEEDRKPKAEEDEILNRSPRNRKPRRE",,binds,

# Second part, led by results:
binding [1],binding [4],Molecule,also measured
,binds,"BiP (human, endogenous) (from UniProt P11021 19-654)",
binds,,"calnexin (mouse, endogenous) (protein, UniProt P35564 21-591) HDGHDDDAIDIEDDLDDVIEEVEDSKSKSDASTPPSPKVTYKAPVPTGEVYFADSFDRGSLSGWILSKAKKDDTDDEIAKYDGKWEVDEMKETKLPGDKGLVLMSRAKHHAISAKLNKPFLFDTKPLIVQYEVNFQNGIECGGAYVKLLSKTAELSLDQFHDKTPYTIMFGPDKCGEDYKLHFIFRHKNPKTGVYEEKHAKRPDADLKTYFTDKKTHLYTLILNPDNSFEILVDQSVVNSGNLLNDMTPPVNPSREIEDPEDRKPEDWDERPKIADPDAVKPDDWDEDAPSKIPDEEATKPEGWLDDEPEYIPDPDAEKPEDWDEDMDGEWEAPQIANPKCESAPGCGVWQRPMIDNPNYKGKWKPPMIDNPNYQGIWKPRKIPNPDFFEDLEPFKMTPFSAIGLELWSMTSDIFFDNFIISGDRRVVDDWANDGWGLKKAADGAAEPGVVLQMLEAAEERPWLWVVYILTVALPVFLVILFCCSGKKQSNAMEYKKTDAPQPDVKDEEGKEEEKNKRDEEEEEEKLEEKQKSDAEEDGVTGSQDEEDSKPKAEEDEILNRSPRNRKPRRE",binding [5]: binds; binding [6]: no binding

# — article PMC11655647
